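All cell lines were grown in 96-well plates and treated with compound for 48 hours. At the GI50, growth is halved. TGI is the concentration that stops growth completely.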
Tested on: NCI-H322M lung
Experiment: NCI anticancer screen, dose series, 48 h

Row | Structure (SMILES) | TGI | GI50
1 | [N-]=[N+]=NC1OC(=O)C(Cl)=C1N=P(c1ccccc1)(c1ccccc1)c1ccccc1 (stereo not given) | > 10 µM | –
2 | COc1ccc(C(=O)O[C@H]2[C@@H]3C=CO[C@@H](OC4OC(CO)C(O)C(O)C4O)[C@@H]3[C@@]3(CO)O[C@@H]23)cc1O (stereo not given in full) | > 100 µM | –
3 | O=[N+]([O-])c1cc(Cl)c2[nH]c3c(Cl)cc([N+](=O)[O-])cc3c2c1 | > 100 µM | 0.599 µM
4 | O=C(O)c1ccc(CI)cc1 | 52.8 µM | –
5 | CC1(C)OC2[C@@H](CO[C@@]3([C@@H](O)CCO)OC(C)(C)O[C@@H]23)O1 (stereo not given in full) | > 100 µM | –
6 | COc1cc(C(C)O)c(S(=O)(=O)CC(C)O)nn1 (stereo not given) | > 100 µM | –
7 | Cc1ccc(NC(=O)CCc2nc(N)nc(N)c2-c2ccccc2)cc1C | > 100 µM | –
8 | Cc1nc(C)c(N2CCN(S(=O)(=O)N(Cc3ccccc3)Cc3ccccc3)CC2)c(=O)[nH]1 | > 100 µM | –
9 | CC1=C(C(=O)CC(=O)C(=O)Nc2cc(C)ccc2C)Sc2ccccc2N1 | > 100 µM | –
10 | C#C/C=C\CCCC/C=C\C#CC#CCCCC#CC#C[C@H](COS(=O)(=O)O)OS(=O)(=O)O | > 100 µM | –
11 | CC(=O)OC12C3C4C1C1C2C3C41OC(C)=O (stereo not given) | > 100 µM | –
12 | CCOC(=O)C(Cc1c[nH]c2c(N(CCO)CCO)cccc12)(NC(C)=O)C(=O)OCC | > 1000 µM | > 1000 µM
13 | N/N=C1\C(=O)N(C2CCCCCC2)C(=O)C1C(=O)NC1CCCCCC1 (stereo not given) | > 100 µM | –
14 | O=C1CC(c2ccccc2)C2(C(=O)NC(=S)NC2=O)C(c2ccccc2)C1 (stereo not given) | > 75 µM | –
15 | CC1=C[C@H]2c3c([nH]c4ccccc34)C(c3c[nH]c4ccccc34)[C@H]2CC1 (stereo not given in full) | 22.9 µM | –
16 | Cc1ncc(C(=O)Nc2ccc(CN3CCN(C)CC3)c(C(F)(F)F)c2)cc1C#Cc1cnc2cccnn12 | 3.14 µM | 0.6 µM
17 | CC1=NC2=Nc3nc(C)cc[n+]3CN2C=C1 | > 100 µM | –
18 | O=C(/C=C/c1cccc(Oc2ccccc2)c1)NCc1ccc(C(=O)NCc2ccccc2)cc1 | > 100 µM | –
19 | CCc1ccc(NC(=O)NC(=O)c2ccccc2[N+](=O)[O-])cc1Oc1ncc(Cl)cn1 | > 100 µM | –
20 | CCC1CC2C(=O)N(c3ccccc3)C(=O)C2c2[nH]c3ccccc3c21 (stereo not given) | > 100 µM | –
21 | Cc1c2c3ccccc3nc-2n(C)c2ccccc12 | 4.97 µM | –
22 | CC(=O)N/N=C1\CC(C)(C)C2CCC1C2 (stereo not given) | > 100 µM | –
23 | C#Cc1cccc(N2C(=O)c3c(c(-c4ccccc4)c(-c4ccc(Cc5ccc(-c6c(-c7ccccc7)c7c(c(-c8ccccc8)c6-c6ccccc6)C(=O)N(c6cccc(C#C)c6)C7=O)cc5)cc4)c(-c4ccccc4)c3-c3ccccc3)C2=O)c1 | > 100 µM | –

Row | Structure (SMILES) | TGI | GI50
24 | NS(=O)(=O)c1ccc(-n2nc3c(c2-c2ccc(Cl)cc2)Cc2ccccc2-3)cc1 | 88.2 µM | 27.9 µM
25 | O=C(O)c1ccc(NCn2nc(-c3ccccc3O)oc2=S)cc1 | > 100 µM | > 100 µM
26 | Cc1nc(-c2ccccc2)n2nc(NCCCN3CCOCC3)ncc12 | > 25 µM | 9.48 µM
27 | [N-]=[N+]=NC(c1cn(C2CC(O)C(CO)O2)c(=O)[nH]c1=O)C(Br)Br (stereo not given) | > 100 µM | –
28 | COc1ccc(C2OC(=O)c3ccc4ccccc4c32)c(C)c1 (stereo not given) | > 100 µM | –
29 | Clc1ccc(C(c2ccccc2Cl)C(Cl)Cl)cc1 (stereo not given) | 37.4 µM | –
30 | COC12CCC(=O)C=C1c1ccccc1N2C(C)=O (stereo not given) | > 100 µM | –
31 | C=CCC1CC(n2cc(C)c(=O)[nH]c2=O)OC1CO[Si](C)(C)C(C)(C)C (stereo not given) | 28.6 µM | –
32 | Nc1nonc1-c1nc2cnccc2n1C1CC1 | > 25 µM | 10.5 µM
33 | COc1cc(F)c(F)c(Nc2ccc(I)cc2F)c1NS(=O)(=O)C1(C[C@H](O)CO)CC1 | > 10 µM | 0.55 µM
34 | COC(=O)CCC1=C(CC(=O)OC)C(C)(OC)N=C1NC(=O)OCc1ccccc1 (stereo not given) | > 100 µM | –
35 | O=C(/C=C/C12c3ccccc3C(c3ccccc31)C1C(=O)NC(=O)C12)c1ccc(Cl)cc1Cl (stereo not given) | 3.05 µM | 1.67 µM
36 | CCOC(=O)c1c(N=P(c2ccccc2)(c2ccccc2)c2ccccc2)nnc(-c2ccccc2)c1-c1ccccc1 | > 100 µM | –
37 | CCOC(=O)C1=C(O)C2C3CC4C2C(O)=C(C(=O)OCC)C2C1C3C42 (stereo not given) | > 100 µM | –
38 | Cc1[nH]nc(C(F)(F)F)c1N=NN(C)C | 31.9 µM | –
39 | O=C1c2cc(Cl)ccc2NC(=NC2CCCC2)C2CSCN12 (stereo not given) | > 100 µM | –
40 | O=C(Nc1cc(C(F)(F)F)ccc1Cl)c1ccc(NC2=C(Cl)C(=O)N(Cc3ccccc3)C2=O)cc1 | 58.6 µM | 18.4 µM
41 | CCC(=O)c1c(NOC2OCC(OC(C)=O)C(OC(C)=O)C2OC(C)=O)nc(OC)n(C)c1=O (stereo not given) | > 100 µM | –
42 | CC(=O)c1ccc2c(c1)C1C=CCC1[C@H](c1cc3c(cc1Br)OCO3)N2 (stereo not given in full) | > 85.8 µM | 4.23 µM
43 | CS(=O)(=O)CCNCc1cc(-c2cc3c(Nc4ccc(OCc5cccc(F)c5)c(Cl)c4)ncnc3s2)cs1 | > 25 µM | 7.59 µM
44 | Cc1nc(CC#N)n[nH]1 | > 100 µM | –
45 | CN(CCCCCl)P(=O)(OCCS(=O)(=O)CC(NC(=O)CCC(N)C(=O)O)C(=O)NC(C(=O)O)c1ccccc1)OCC1OC(n2ccc(N)nc2=O)C(F)(F)C1O (stereo not given) | > 100 µM | 4.03 µM
46 | CCCCCCCCOC(=O)CC[C@@H](C)[C@H]1CC[C@H]2[C@@H]3[C@H](OC(=O)CCN)C[C@@H]4C[C@H](OC(=O)CCN)CC[C@]4(C)[C@H]3C[C@H](OC(=O)CCN)[C@]12C | 12 µM | 3.98 µM

Row | Structure (SMILES) | TGI | GI50
47 | CC(C)CCC[C@@H](C)[C@H]1CC[C@H]2[C@@H]3CC[C@H]4C[C@@H](CCC=C(c5cc(Cl)c(O)c(C(=O)O)c5)c5cc(Cl)c(O)c(C(=O)O)c5)CC[C@]4(C)[C@H]3CC[C@]12C | > 100 µM | –
48 | NC1=C(NC(=O)Cc2ccccc2F)C(=O)c2ccccc2C1=O | > 100 µM | –
49 | Nc1nc(Cl)c(N)c(NCC2(CO)CC2)n1 | > 100 µM | –
50 | Cc1c2ccncc2cc2c1[nH]c1ccccc12 | 46.2 µM | –
51 | CCCC(CCC(N)=O)(CCC(N)=O)[N+](=O)[O-] | > 100 µM | –
52 | O=C1/C(=C\c2cccc(Oc3ccccc3)c2)SC(c2ccccc2)N1c1ccccc1 (stereo not given) | > 100 µM | –
53 | Nc1ccccc1C#C/C=C\C#Cc1ccc(OCCCNC(=O)c2cc3ccccc3[nH]2)cc1 | 91.2 µM | 16 µM
54 | Nc1[nH]nc(Nc2ccc(Cl)cc2)c1P(=O)(c1ccccc1)c1ccccc1 | > 100 µM | –
55 | COc1ccccc1C#Cc1ccccc1C#CCCCCO | 54.4 µM | 22.9 µM
56 | O=C(O)CCS/C(=C\C(SCCC(=O)O)c1ccc(Cl)cc1)c1ccc(Cl)cc1 (stereo not given) | > 100 µM | –
57 | COc1ccc(/C=C/C(=O)/C=C/c2cc3ccccc3[nH]c2=O)cc1 | 33.2 µM | 13.9 µM
58 | COc1ccc(-c2cs/c(=N\N=C\c3ccc(O)cc3O)n2/N=C/c2ccc(O)cc2O)cc1 | 6.34 µM | 2.26 µM
59 | NC(=S)/N=C(/c1nc2ccc(Cl)cc2[nH]c1=O)C(O)c1ccccc1Cl (stereo not given) | > 100 µM | –
60 | NCCSSCCN | > 100 µM | –
61 | O=C1CC2CC3OC3[C@H]3c4cc5c(cc4C(=O)N1C23)OCO5 (stereo not given in full) | > 100 µM | –
62 | Brc1ccc(C[P+]2(c3ccccc3)CCCCC2)cc1 | > 100 µM | –
63 | CS(=O)(=O)OCCN(CCOS(C)(=O)=O)c1ccc(C=Nc2cccc(Cl)c2)cc1 | 33.6 µM | –
64 | CS(=O)(=O)c1nc(-c2cc3c(c(S(C)(=O)=O)n2)CCCC3)cc2c1CCCCC2 | > 100 µM | –
65 | CO/N=C(/C)c1cccc(Nc2nc3ccccc3c3[nH]c4ccccc4c23)c1 | 8.11 µM | –
66 | C=C1C(=O)O[C@H]2C[C@@]3(COC(C)=O)C=COC=C(COC(=O)C(C)C)C3CC12 (stereo not given in full) | > 100 µM | –
67 | O=c1cc(CO)oc2c3c(cc(O)c12)OCC(COC1OC(CO)C(O)C(O)C1O)=CC3 (stereo not given) | > 100 µM | –
